In patent US20230331822A1 (published 2023):

B1: COV2-143-4-Fc (Fc fusion)
chain: QLQLVESGGDLVQPGESLRLSCVASGLTLNNNTIGWFRQAPGKEREGVSCISPSGIVTSYADSVRGRFTISRENAKNAVYLEMNSLKPEDTAVYYCAVLQWNGAGLPSPLGSWGQGTQVTVSS[human IgG1 Fc with changes not listed]
B2: COV2-13-5-Fc (Fc fusion)
chain: QLQLVESGGDLVQPGESLRLSCVASGFTLGNYEIGWFRQAPGKEREGVSCISRSGVIFSYADSVRGRFTISRENAKNAVYLEMNSLKPEDTAVYYCAARFRAGLVQSLCQSTPEFYQDWGQGTQVTVSS[human IgG1 Fc with changes not listed]
B3: COV2-356-6-Fc (Fc fusion)
chain: QLQLVESGGDLVQPGESLRLSCVASGFTLGNYAIGWFRQAPGKEREGVSCISLSGDIISYADSVRGRFTISRENAKNAVYLEMNSLKPEDTAVYYCAAPFPSLLYCSLCPSNPEFCRHWGQGTQVTVSS[human IgG1 Fc with changes not listed]
B4: COV2-115-7-Fc (Fc fusion)
chain: QLQLVESGGDLVQPGESLRLSCVASGFSLDGYAIGWFRQAPGKEREGVSCIGRLGTTTSYADSVRGRFTISRENAKNAVYLEMNSLKPEDTAVYYCAAKRSTWFGCSTLDDYDYWGQGTQVTVSS[human IgG1 Fc with changes not listed]
B5: COV2-22-8-Fc (Fc fusion)
chain: QLQLVESGGDLVQPGESLRLSCVASGFTLDRYAIGWFRQAPGKEREGVSCISSGGTTSYADSVRGRFTISRENAKNAVYLEMNSLKPEDTAVYYCAAGTQLRYGCSRQARRYDYWGQGTQVTVSS[human IgG1 Fc with changes not listed]
B6: COV2-122-10-Fc (Fc fusion)
chain: QLQLVESGGDLVQPGESLRLSCVASGATSDIYAIGWFRQAPGKEREGVSCISPSGGSTSYADSVRGRFTISRENAKNAVYLEMNSLKPEDTAVYYCAAASPSWHYCSGYEHEYDDWGQGTQVTVSS[human IgG1 Fc with changes not listed]
B7: COV2-136-12-Fc (Fc fusion)
chain: QLQLVESGGDLVQPGESLRLSCVASGFTFHYYAIGWFRQAPGKEREGVSCISSGGGRTSYADSVRGRFTISRENAKNAVYLEMNSLKPEDTAVYYCAALQGSLHYCSGLVGEYEYWGQGTQVTVSS[human IgG1 Fc with changes not listed]
B8: COV2-237-13-Fc (Fc fusion)
chain: QLQLVESGGDLVQPGESLRLSCVASFKSYHIAWIGWFRQAPGKEREGVSCSLTGASITSYADSVRGRFTISRENAKNAVYLEMNSLKPEDTAVYYCAARDYASSLYCSRNEAMYAYWGQGTQVTVSS[human IgG1 Fc with changes not listed]
B9: COV2-353-14-Fc (Fc fusion)
chain: QLQLVESGGDLVQPGESLRLSCVASGFRLGGYAIGWFRQAPGKEREGVSCISGSGIISSYADSVRGRFTISRENAKNAVYLEMNSLKPEDTAVYYCAAPSGSSYGSRRLPCGIDSQDYQTWGQGTQVTVSS[human IgG1 Fc with changes not listed]
B10: COV2-121-15-Fc (Fc fusion)
chain: QLQLVESGGDLVQPGESLRLSCVASFDDFAIGWIGWFRQAPGKEREGVSCSARGIVNTSYADSVRGRFTISRENAKNAVYLEMNSLKPEDTAVYYCAALVGLNDRSLPHEAEEYDYWGQGTQVTVSS[human IgG1 Fc with changes not listed]
B11: COV2-324-16-Fc (Fc fusion)
chain: QLQLVESGGDLVQPGESLRLSCVASGFTFDDYSIGWFRQAPGKEREGVSCFSSLDGSTSYADSVRGRFTISRENAKNAVYLEMNSLKPEDTAVYYCAATRGSSWYWYRPSEYDYWGQGTQVTVSS[human IgG1 Fc with changes not listed]

Key:
[1] = target: T1, HCoV-HKU1 Spike protein, full length, C-terminally fused with EGFP (HCoV-HKU1, UniProt Q5MQD0 13-1356); assay: flow cytometry, HEK293 cells expressing full-length Spike-EGFP, anti-hIg-PE
T1 construct: whole, on cells
T1 sequence: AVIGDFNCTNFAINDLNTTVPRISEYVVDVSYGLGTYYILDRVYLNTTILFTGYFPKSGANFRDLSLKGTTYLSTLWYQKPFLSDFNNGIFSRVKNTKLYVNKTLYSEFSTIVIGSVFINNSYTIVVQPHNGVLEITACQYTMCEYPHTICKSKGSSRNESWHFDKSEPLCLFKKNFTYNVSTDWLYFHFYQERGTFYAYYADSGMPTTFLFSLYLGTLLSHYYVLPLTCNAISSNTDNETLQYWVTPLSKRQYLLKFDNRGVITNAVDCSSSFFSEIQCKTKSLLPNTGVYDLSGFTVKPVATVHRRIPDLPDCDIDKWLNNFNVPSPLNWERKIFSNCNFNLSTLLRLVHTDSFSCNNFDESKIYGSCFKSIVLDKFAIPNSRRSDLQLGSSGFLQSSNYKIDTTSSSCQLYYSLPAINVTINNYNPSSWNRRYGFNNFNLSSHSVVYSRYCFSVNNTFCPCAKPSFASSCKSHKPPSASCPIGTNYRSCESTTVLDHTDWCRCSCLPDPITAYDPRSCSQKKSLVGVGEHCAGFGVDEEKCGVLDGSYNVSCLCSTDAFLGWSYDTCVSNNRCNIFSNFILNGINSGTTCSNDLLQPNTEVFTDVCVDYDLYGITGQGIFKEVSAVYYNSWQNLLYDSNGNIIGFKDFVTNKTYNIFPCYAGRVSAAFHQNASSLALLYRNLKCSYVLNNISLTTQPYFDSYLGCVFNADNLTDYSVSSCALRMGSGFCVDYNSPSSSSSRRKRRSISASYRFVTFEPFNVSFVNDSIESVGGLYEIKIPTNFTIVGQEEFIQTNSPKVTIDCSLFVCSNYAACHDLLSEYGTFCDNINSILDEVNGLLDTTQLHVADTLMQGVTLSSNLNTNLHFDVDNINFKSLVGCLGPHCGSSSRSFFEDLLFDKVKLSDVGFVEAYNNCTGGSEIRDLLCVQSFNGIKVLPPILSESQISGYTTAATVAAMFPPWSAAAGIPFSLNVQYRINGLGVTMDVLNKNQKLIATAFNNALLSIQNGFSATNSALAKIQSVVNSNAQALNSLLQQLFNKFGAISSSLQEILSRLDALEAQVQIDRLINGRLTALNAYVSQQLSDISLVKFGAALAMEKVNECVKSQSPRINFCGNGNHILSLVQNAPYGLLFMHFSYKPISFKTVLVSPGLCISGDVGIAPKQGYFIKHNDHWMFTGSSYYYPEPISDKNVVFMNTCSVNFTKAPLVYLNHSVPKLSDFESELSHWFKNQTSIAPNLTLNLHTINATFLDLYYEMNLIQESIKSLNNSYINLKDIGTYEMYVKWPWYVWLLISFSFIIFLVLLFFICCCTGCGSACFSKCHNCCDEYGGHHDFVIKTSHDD

[2] = target: T2, HCoV-OC43 Spike protein, full length, C-terminally fused with EGFP (HCoV-OC43, UniProt P36334 14-1353); assay: as above
T2 construct: whole, on cells
T2 sequence: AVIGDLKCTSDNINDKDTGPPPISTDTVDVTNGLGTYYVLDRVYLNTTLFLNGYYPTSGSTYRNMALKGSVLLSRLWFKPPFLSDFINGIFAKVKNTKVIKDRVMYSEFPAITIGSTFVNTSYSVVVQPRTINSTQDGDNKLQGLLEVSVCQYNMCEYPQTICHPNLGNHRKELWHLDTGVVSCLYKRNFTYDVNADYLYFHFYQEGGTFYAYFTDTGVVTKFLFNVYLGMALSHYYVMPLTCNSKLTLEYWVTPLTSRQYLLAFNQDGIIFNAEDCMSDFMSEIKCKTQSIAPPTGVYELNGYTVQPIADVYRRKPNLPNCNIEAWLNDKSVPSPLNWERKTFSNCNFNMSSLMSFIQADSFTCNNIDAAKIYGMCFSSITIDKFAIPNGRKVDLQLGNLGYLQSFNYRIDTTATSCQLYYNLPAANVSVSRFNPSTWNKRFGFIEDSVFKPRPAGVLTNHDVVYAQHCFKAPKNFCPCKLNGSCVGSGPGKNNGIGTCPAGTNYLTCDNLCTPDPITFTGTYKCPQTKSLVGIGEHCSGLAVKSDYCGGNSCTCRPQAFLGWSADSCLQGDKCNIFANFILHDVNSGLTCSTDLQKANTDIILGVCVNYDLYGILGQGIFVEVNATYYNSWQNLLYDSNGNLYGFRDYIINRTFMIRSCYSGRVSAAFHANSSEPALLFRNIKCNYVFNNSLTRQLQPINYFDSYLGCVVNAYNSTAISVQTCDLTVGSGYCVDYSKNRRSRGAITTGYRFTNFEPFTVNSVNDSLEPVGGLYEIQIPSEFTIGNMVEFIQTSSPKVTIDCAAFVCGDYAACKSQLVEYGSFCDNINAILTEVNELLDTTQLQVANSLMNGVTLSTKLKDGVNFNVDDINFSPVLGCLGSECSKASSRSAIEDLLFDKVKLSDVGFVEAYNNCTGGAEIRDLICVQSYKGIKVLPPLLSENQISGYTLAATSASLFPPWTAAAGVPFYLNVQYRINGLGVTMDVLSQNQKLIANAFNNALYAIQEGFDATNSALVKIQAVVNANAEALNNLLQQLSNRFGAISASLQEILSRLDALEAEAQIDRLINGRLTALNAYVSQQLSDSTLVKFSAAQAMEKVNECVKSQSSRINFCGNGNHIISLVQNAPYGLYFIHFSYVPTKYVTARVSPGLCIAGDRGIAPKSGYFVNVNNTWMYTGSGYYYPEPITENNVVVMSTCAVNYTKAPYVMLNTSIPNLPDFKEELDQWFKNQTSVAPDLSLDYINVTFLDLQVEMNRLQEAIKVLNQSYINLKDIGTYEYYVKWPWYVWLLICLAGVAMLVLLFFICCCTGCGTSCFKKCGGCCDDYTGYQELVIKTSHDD

Binder	binding result [1]	binding result [2]
B1	no binding	no binding
B2	no binding	no binding
B3	no binding	no binding
B4	no binding	no binding
B5	no binding	no binding
B6	no binding	no binding
B7	no binding	no binding
B8	no binding	no binding
B9	no binding	no binding
B10	no binding	no binding
B11	no binding	no binding
